No constants are given. Whether binding was seen depends on the method and setting. For some assays here: Binding seen in cells or lysates may run through a third protein. Some binding calls cover weakened binding; strength is not graded here.
B1: full-length Plk4 (transfected) (protein, UniProt O00444 1-970)
chain: MATCIGEKIEDFKVGNLLGKGSFAGVYRAESIHTGLEVAIKMIDKKAMYKAGMVQRVQNEVKIHCQLKHPSILELYNYFEDSNYVYLVLEMCHNGEMNRYLKNRVKPFSENEARHFMHQIITGMLYLHSHGILHRDLTLSNLLLTRNMNIKIADFGLATQLKMPHEKHYTLCGTPNYISPEIATRSAHGLESDVWSLGCMFYTLLIGRPPFDTDTVKNTLNKVVLADYEMPSFLSIEAKDLIHQLLRRNPADRLSLSSVLDHPFMSRNSSTKSKDLGTVEDSIDSGHATISTAITASSSTSISGSLFDKRRLLIGQPLPNKMTVFPKNKSSTDFSSSGDGNSFYTQWGNQETSNSGRGRVIQDAEERPHSRYLRRAYSSDRSGTSNSQSQAKTYTMERCHSAEMLSVSKRSGGGENEERYSPTDNNANIFNFFKEKTSSSSGSFERPDNNQALSNHLCPGKTPFPFADPTPQTETVQQWFGNLQINAHLRKTTEYDSISPNRDFQGHPDLQKDTSKNAWTDTKVKKNSDASDNAHSVKQQNTMKYMTALHSKPEIIQQECVFGSDPLSEQSKTRGMEPPWGYQNRTLRSITSPLVAHRLKPIRQKTKKAVVSILDSEEVCVELVKEYASQEYVKEVLQISSDGNTITIYYPNGGRGFPLADRPPSPTDNISRYSFDNLPEKYWRKYQYASRFVQLVRSKSPKITYFTRYAKCILMENSPGADFEVWFYDGVKIHKTEDFIQVIEKTGKSYTLKSESEVNSLKEEIKMYMDHANEGHRICLALESIISEEERKTRSAPFFPIIIGRKPGSTSSPKALSPPPSVDSNYPTRERASFNRMVMHSAASPTQAPILNPSMVTNEGLGLTTTASGTDISSNSLKDCLPKSAQLLKSVFVKNVGWATQLTSGAVWVQFNDGSQLVVQAGVSSISYTSPNGQTTRYGENEKLPDYIKQKLQCLSSILLMFSNPTPNFH
B2: Plk4 CPB(581–808) (domain or fragment, UniProt O00444 581-808)
chain: GYQNRTLRSITSPLVAHRLKPIRQKTKKAVVSILDSEEVCVELVKEYASQEYVKEVLQISSDGNTITIYYPNGGRGFPLADRPPSPTDNISRYSFDNLPEKYWRKYQYASRFVQLVRSKSPKITYFTRYAKCILMENSPGADFEVWFYDGVKIHKTEDFIQVIEKTGKSYTLKSESEVNSLKEEIKMYMDHANEGHRICLALESIISEEERKTRSAPFFPIIIGRKPG

Sequences of proteins named here, by UniProt entry; tags and fusion partners are left off. A change or cut given only in a name is not applied to a line headed by its entry. A line that says so, or that is headed by a name, gives the form on record, which may keep a tag or linker. Residues count along the entry.
UniProt P12520: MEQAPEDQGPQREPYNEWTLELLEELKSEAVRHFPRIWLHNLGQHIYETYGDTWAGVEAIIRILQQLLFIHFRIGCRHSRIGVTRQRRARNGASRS
mGFP-STREP-TEV-fused Vpr(51–96) (HIV-1 (NL4-3 isolate)): residues 51-96 of P12520
mGFP-STREP-TEV-fused Vpr(75–96) (HIV-1 (NL4-3 isolate)): residues 75-96 of P12520
VprBP AR (residues 1401–1507) (Q9Y4B6, residues 1401-1507): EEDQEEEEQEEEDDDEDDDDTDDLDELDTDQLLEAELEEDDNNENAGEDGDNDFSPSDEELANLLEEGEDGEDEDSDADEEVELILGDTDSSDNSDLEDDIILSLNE
VprBP(1401–1450) (Q9Y4B6, residues 1401-1450): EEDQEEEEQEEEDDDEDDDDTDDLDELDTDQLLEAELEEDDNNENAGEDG
His-Maltose binding protein (MBP)-fused VprBP(1446–1507) (Q9Y4B6, residues 1446-1507): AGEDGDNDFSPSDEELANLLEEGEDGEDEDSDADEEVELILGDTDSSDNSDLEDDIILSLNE

Tests used:
[1] = molecular target: STREP-Vpr (HIV-1 (NL4-3 isolate)) (UniProt P12520); experiment: co-IP; STREP-Vpr or mGFP-STREP-containing Vpr ligands precipitated from cells transfected with the indicated constructs; immunoblot
[2] = molecular target: mGFP-STREP-TEV-fused Vpr (HIV-1 (NL4-3 isolate)) (UniProt P12520); experiment: as above
[3] = molecular target: mGFP-STREP-TEV-fused Vpr(51–96) (HIV-1 (NL4-3 isolate)) (UniProt P12520); experiment: as above
[4] = molecular target: mGFP-STREP-TEV-fused Vpr(75–96) (HIV-1 (NL4-3 isolate)) (UniProt P12520); experiment: as above
[5] = molecular target: VprBP AR (residues 1401–1507) (UniProt Q9Y4B6); experiment: co-IP; HEK293T cells transfected with the indicated constructs; TBSN buffer (20 mM Tris-HCl pH 8.0, 120 mM NaCl, 0.5% Nonidet P-40, 5 mM EGTA, 1.5 mM EDTA, 2 mM DTT); immunoblot; Supplementary Fig. 2b under thymidine or nocodazole treatment
VprBP(1401–1450) = VprBP(1401–1450) (UniProt Q9Y4B6); experiment: as above
[6] = molecular target: VprBP(1446–1507) (transfected) (UniProt Q9Y4B6); experiment: as above
[7] = molecular target: His-Maltose binding protein (MBP)-fused VprBP(1446–1507) (UniProt Q9Y4B6); experiment: SEC; co-elution of MBP-VprBP(1446–1507) and CPB(581–808), Coomassie-stained SDS-PAGE of fractions; whether co-expressed or mixed is not told

Row | Binder | binding [1] | binding [2] | binding [3] | binding [4] | binding [5] | binding (VprBP(1401–1450)) | binding [6] | binding [7]
1 | B1 | binds | binds | binds weakly | binds weakly | binds | no binding | binds | 
2 | B2 |  |  |  |  |  |  |  | binds

From publication PMC10914751
